Experimental data published in PubChem BioAssay AID1508642 (National Center for Advancing Translational Sciences (NCATS), 2021).
Screen size: about 43,000 compounds; about 200 (0.47%) were called active. Roughly 12% stayed inconclusive and do not appear here. The call rests on the fitted dose curve; in most records, active means well fitted cell-killing curve with a large enough effect; inconclusive means small, poorly fitted or top-dose-only effect, or effect the other way; inactive means flat fitted curve, though single readings scatter. Some of the results follow.

Assay: Cell viability qHTS assay in S16 Pmp22-F2sN cells; further: nearly all actives have a fitted effect of over 65% in size
Details: S16 Pmp22-F2sN Schwann cells (luciferase reporters placed in the Pmp22 gene) viability, CellTiter-Glo, 24 h; series mostly up to 57.5 µM; activity change, negative = cytotoxicity: at the top concentration
Procedure, shortened: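 Rat S16 Schwann reporter line, 24 h treatment with library compounds delivered at 23 nL per well. Cell viability by CellTiter-Glo luminescence.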
On the % scale 0 is the no-effect control and ±100 the full control effect.

Q: With `O=C1CC(c2ccc(F)cc2)c2c(c3ccccc3[nH]c2=O)O1` (stereo not given) as the compound, how does the “activity change, negative = cytotoxicity” value read?
A: inactive: -4.43%

Q: Which “activity change, negative = cytotoxicity” value does the source give for `CCOC(=O)c1ccc(NC(=O)CSc2nccn2-c2cc(C)cc(C)c2)cc1` here?
A: inactive: 12.7%

Q: For `Cc1cc(C)cc(NC(=O)CNS(=O)(=O)c2ccc3nc(C)sc3c2)c1`, which “activity change, negative = cytotoxicity” value is on record?
A: inactive: -10.9%

Q: With `CCn1cc(C(=O)NCCc2ccc(C)cc2)c(=O)c2cc(S(=O)(=O)N3CCc4ccccc4C3)ccc21` as the compound, how does the “activity change, negative = cytotoxicity” value read?
A: inactive: 2.06%

Q: For `Cc1ccc(-c2noc(-c3cc(-c4ccc(F)cc4)n[nH]3)n2)cc1`, which “activity change, negative = cytotoxicity” value is on record?
A: inactive: 0.443%

Q: Which “activity change, negative = cytotoxicity” value does the source give for `O=C(Nc1c(-c2ccccc2)nc2ccccn12)c1ccccc1F` here?
A: inactive: 0.019%

Q: With `Cc1ccc(SCc2nc(-c3ccc(C(=O)Nc4cc(C)ccc4C)cc3)oc2C)cc1` as the compound, how does the “activity change, negative = cytotoxicity” value read?
A: inactive: -0.828%

Q: With `O=C(Nc1ccc2[nH]c(=O)c(=O)[nH]c2c1)c1cccc(F)c1` as the compound, how does the “activity change, negative = cytotoxicity” value read?
A: inactive: -7.97%

Q: For `Cc1ccc(NC(=O)CSc2nc3ccc(NC(=O)COc4ccc(C)cc4)cc3s2)cc1`, which “activity change, negative = cytotoxicity” value is on record?
A: inactive: 17%

Q: With `COc1ccccc1N1CCN(C(=O)CCn2nc(C)c(S(=O)(=O)N3CCCC3)c2C)CC1` as the compound, how does the “activity change, negative = cytotoxicity” value read?
A: inactive: -21.6%

Q: With `Cc1ccccc1C1=CCN(c2ncc(NC(=O)c3ccc(Cl)cc3)cc2C(=O)O)CC1` as the compound, how does the “activity change, negative = cytotoxicity” value read?
A: inactive: -2.86%

Q: For `Cc1nc2nc(SCC(=O)NCCc3ccc(Cl)cc3)nn2c(C)c1Cc1ccccc1Cl`, which “activity change, negative = cytotoxicity” value is on record?
A: inactive: 14.4%

Q: For `Cc1nc2c(-c3ccccc3)c(C)nn2c(C)c1CCC(=O)Nc1ccccc1F`, which “activity change, negative = cytotoxicity” value is on record?
A: inactive: -0.634%

Q: For `CS(=O)(=O)n1nc(-c2ccco2)nc1NCc1ccccc1Cl`, which “activity change, negative = cytotoxicity” value is on record?
A: inactive: -18%

Q: For `COc1ccc(C(=O)c2cn(Cc3cccc(C)c3)c3cc4c(cc3c2=O)OCO4)cc1`, which “activity change, negative = cytotoxicity” value is on record?
A: inactive: 13%

Q: For `COc1cc(Cl)c(C)cc1NC(=O)CSc1cc(-c2ccccc2)nc(C)n1`, which “activity change, negative = cytotoxicity” value is on record?
A: inactive: -0.509%

Q: Which “activity change, negative = cytotoxicity” value does the source give for `CCOC(=O)c1[nH]c(C)c(C(=O)NCc2cccc(OC)c2)c1C` here?
A: inactive: -15.8%

Q: With `COc1ccc(CC(=O)NCCc2csc(-c3ccc(C(F)(F)F)cc3)n2)cc1` as the compound, how does the “activity change, negative = cytotoxicity” value read?
A: inactive: 0.213%

Q: For `CCc1ccccc1NC(=O)Cn1c(=O)n(CC(=O)NCCc2ccccc2)c(=O)c2ccccc21`, which “activity change, negative = cytotoxicity” value is on record?
A: inactive: 3.14%

Q: With `COc1ccc(-c2noc(-c3ccc(C)cc3Cl)n2)cc1OC` as the compound, how does the “activity change, negative = cytotoxicity” value read?
A: inactive: -9.27%

Q: Which “activity change, negative = cytotoxicity” value does the source give for `COc1ccc(C2CC(=O)Nc3c2c(=O)n(C)c2nc4ccccc4n32)cc1` (stereo not given) here?
A: inactive: 3.14%

Q: For `Cn1c(=O)c2c(SCC(=O)NCc3ccc(F)cc3)nc(-c3ccccc3Cl)nc2n(C)c1=O`, which “activity change, negative = cytotoxicity” value is on record?
A: inactive: 11.3%

Q: With `COC(=O)c1sc2cccc(F)c2c1S(=O)(=O)Nc1ccc(C)cc1Cl` as the compound, how does the “activity change, negative = cytotoxicity” value read?
A: inactive: 0.339%

Q: With `Cc1c(/C=C(\C#N)C(=O)Nc2cccc(Cl)c2)c2ccccc2n1Cc1ccccc1` as the compound, how does the “activity change, negative = cytotoxicity” value read?
A: inactive: -2.91%

Q: For `CCOc1ccc(OCC)c(NC(=O)CCc2nc3cccnc3n2Cc2cccs2)c1`, which “activity change, negative = cytotoxicity” value is on record?
A: inactive: -8.51%

Q: With `COc1ccc(-c2nc(C)c(CCNC(=O)c3c(F)cccc3F)s2)cc1` as the compound, how does the “activity change, negative = cytotoxicity” value read?
A: inactive: -5.54%

Q: Which “activity change, negative = cytotoxicity” value does the source give for `Cc1cccc(Cc2c(C)nc3nc(SCc4ccccc4Cl)nn3c2C)c1` here?
A: inactive: -2.51%

Q: With `Cc1ccc(C)c(Cn2c(=O)n(CCC(=O)NCc3ccc4c(c3)OCO4)c(=O)c3sccc32)c1` as the compound, how does the “activity change, negative = cytotoxicity” value read?
A: inactive: 5.86%

Q: For `COc1cc(Cl)c(C)cc1NC(=O)CSc1nc2c(c(=O)[nH]1)CCCC2`, which “activity change, negative = cytotoxicity” value is on record?
A: inactive: 15.3%

Q: Which “activity change, negative = cytotoxicity” value does the source give for `COC(=O)N1CCCc2cc(S(=O)(=O)N3CCN(c4ccccc4)CC3)ccc21` here?
A: inactive: 7.05%

Q: For `CCCCNC(=O)CCCn1c(=O)c2ccccc2n(Cc2c(C)cc(C)cc2C)c1=O`, which “activity change, negative = cytotoxicity” value is on record?
A: inactive: 6.3%

Q: For `CN(C)c1ccc(CNC(=O)c2cnc3sc(N4CCCCCC4)nn3c2=O)cc1`, which “activity change, negative = cytotoxicity” value is on record?
A: inactive: 0.467%

Q: With `COc1cc(OC)c(NC(=O)n2ncc3cc(Cl)ccc32)cc1Cl` as the compound, how does the “activity change, negative = cytotoxicity” value read?
A: inactive: 20.5%

Q: Which “activity change, negative = cytotoxicity” value does the source give for `COc1ccc(C2CC(=O)c3c([nH]c(C(=O)OC4CCCCCC4)c3C)C2)cc1` (stereo not given) here?
A: inactive: 14.6%

Q: For `COc1ccc(OC)c(NC(=O)CSC2=Nc3ccccc3C3=NC(CC(=O)NCc4ccc(F)cc4)C(=O)N23)c1` (stereo not given), which “activity change, negative = cytotoxicity” value is on record?
A: inactive: -19.5%

Q: For `COc1cccc(OCC(=O)NC2CC(=O)N(c3ccc4c(c3)OCCO4)C2)c1` (stereo not given), which “activity change, negative = cytotoxicity” value is on record?
A: inactive: -2.31%

Q: With `COC(=O)c1ccccc1NC(=O)c1cc(C)nc2c1c(C)nn2-c1ccc(C)cc1` as the compound, how does the “activity change, negative = cytotoxicity” value read?
A: inactive: 12%

Q: With `COc1ccc2c(c1)c1c(c(=O)n(-c3ccc(OC)c(OC)c3)c(=O)n1CC(=O)N1CCCC1)n2C` as the compound, how does the “activity change, negative = cytotoxicity” value read?
A: inactive: 4.91%

Q: Which “activity change, negative = cytotoxicity” value does the source give for `Cc1ccc(NC(=O)N2CCN(c3nnc(C)c4c(C)n(-c5ccc(Cl)cc5)nc34)CC2)c(C)c1` here?
A: inactive: 9.48%

Q: Which “activity change, negative = cytotoxicity” value does the source give for `Cc1ccc(CNC(=O)CSc2ncc(S(=O)(=O)c3ccc(C)c(Cl)c3)c(=O)[nH]2)cc1` here?
A: inactive: 15.9%

Q: With `O=C(Nc1ccccc1O)c1cc(S(=O)(=O)N2CCCC2)ccc1Cl` as the compound, how does the “activity change, negative = cytotoxicity” value read?
A: inactive: 14.7%

Q: For `Cc1ccc2nc(-c3ccc(NC(=O)c4ccccc4S(C)(=O)=O)cc3)sc2c1`, which “activity change, negative = cytotoxicity” value is on record?
A: inactive: 17.6%

Q: With `CC1=C(C(N)=O)C(c2cccc(O)c2)n2ncnc2N1` (stereo not given) as the compound, how does the “activity change, negative = cytotoxicity” value read?
A: inactive: -4.78%

Q: Which “activity change, negative = cytotoxicity” value does the source give for `O=C(c1cccs1)c1cn(CCOc2ccc(Cl)cc2)c2ccccc12` here?
A: inactive: -22.7%

Q: With `COc1ccc(Cl)cc1NC(=O)Cn1c(=O)oc2cc(S(=O)(=O)N3CCCCCC3)ccc21` as the compound, how does the “activity change, negative = cytotoxicity” value read?
A: inactive: -1.37%

Q: With `Cc1ccc2sc(N(Cc3cccnc3)C(=O)Cc3ccccc3)nc2c1C` as the compound, how does the “activity change, negative = cytotoxicity” value read?
A: inactive: -6.67%

Q: For `Cc1ccc(-n2nc3c(N4CCC(C(=O)NC5CCC(C)CC5)CC4)nnc(C)c3c2C)cc1` (stereo not given), which “activity change, negative = cytotoxicity” value is on record?
A: inactive: -23.4%

Q: With `CCC(=O)Oc1cc(C(C)(C)C)cc2cc(-c3nc(-c4ccc(OC)cc4OC)no3)c(=O)oc12` as the compound, how does the “activity change, negative = cytotoxicity” value read?
A: inactive: 2.76%

Q: Which “activity change, negative = cytotoxicity” value does the source give for `CCOc1ccc(N(CC(=O)Nc2cc(OC)cc(OC)c2)S(=O)(=O)c2c(C)[nH]c(=O)[nH]c2=O)cc1` here?
A: inactive: 4.96%

Q: With `CN(C)CCNC(=O)c1ccc(Cn2c(SCc3ccc(F)cc3)nc3cccnc32)cc1` as the compound, how does the “activity change, negative = cytotoxicity” value read?
A: inactive: -18%

Q: For `Cc1ccc(C(=O)c2cn(Cc3ccccc3F)c3cc4c(cc3c2=O)OCCO4)cc1`, which “activity change, negative = cytotoxicity” value is on record?
A: inactive: 1.4%

Q: For `Cc1c(C(=O)N(C)C)sc2c1c(=O)n(-c1ccc(Cl)c(Cl)c1)c(=O)n2CC(=O)C(C)(C)C`, which “activity change, negative = cytotoxicity” value is on record?
A: inactive: 2.9%

Q: Which “activity change, negative = cytotoxicity” value does the source give for `COc1ccccc1CNC(=O)CCC(=O)N1CC(C)Sc2ccccc21` (stereo not given) here?
A: inactive: -19.5%

Q: For `Cc1ccc(NC(=O)CSc2nc3ccccc3n2CC(=O)N2CCC(C)CC2)cc1C`, which “activity change, negative = cytotoxicity” value is on record?
A: inactive: -7.55%

Q: For `Cc1csc2nc(COC(=O)c3cccc(NC(=O)c4cccc(Cl)c4)c3)cc(=O)n12`, which “activity change, negative = cytotoxicity” value is on record?
A: inactive: -24.2%

Q: Which “activity change, negative = cytotoxicity” value does the source give for `CCc1nn(CC(=O)N2CCC(C)CC2)c(=O)c2cc3occc3n12` here?
A: inactive: 1.07%

Q: For `CCCN(c1ccc(C(C)C)cc1)S(=O)(=O)c1ccc2c(c1)n(C)c(=O)c(=O)n2C`, which “activity change, negative = cytotoxicity” value is on record?
A: inactive: -2.54%

Q: For `Cc1cccc(N2CCN(C(=O)CN3C(=O)COc4ccc(S(=O)(=O)N5CCC(C)CC5)cc43)CC2)c1C`, which “activity change, negative = cytotoxicity” value is on record?
A: inactive: 6.53%

Q: For `COc1ccc(C(=O)Nc2cccc(-c3cn4ccsc4n3)c2)c(OC)c1`, which “activity change, negative = cytotoxicity” value is on record?
A: inactive: 0.202%

Q: With `O=S(=O)(Nc1cccc(C(F)(F)F)c1)c1ccc(NS(=O)(=O)c2ccc3c(c2)OCCO3)cc1` as the compound, how does the “activity change, negative = cytotoxicity” value read?
A: inactive: 5.13%
